Experimental data from the supplement of paper PMC4604168 (melanoma cell lines).
This is one part of the list. Many values rest on one well or one pass, so single values are uncertain.

The compounds below were run on IST-MEL1 (assay: cell count relative to DMSO control; melanoma cells; higher = more viable cells). Settings: library dose: low library concentration; 72 h.
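Further: cell number obtained by counting DAPI-stained nuclei in high-throughput microscope images with image analysis software, screen run in 1,536-well plates.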

Structure (SMILES) | cell count
CN(c1ncccc1CNc1nc(Nc2ccc3c(c2)CC(=O)N3)ncc1C(F)(F)F)S(C)(=O)=O + O=c1cc(-c2cccc3c2Sc2ccccc2S3)oc(N2CCOCC2)c1 [KU55933] (first compound 0.08 µM, partner dose 1 µM) | 95.9%
CN(c1ncccc1CNc1nc(Nc2ccc3c(c2)CC(=O)N3)ncc1C(F)(F)F)S(C)(=O)=O + N#Cc1c(O)c2c(-c3ccc(-c4ccccc4O)cc3)csc2[nH]c1=O [A769662] (first compound 0.08 µM, partner dose 2 µM) | 104%
CCCS(=O)(=O)Nc1ccc(F)c(C(=O)c2c[nH]c3ncc(Cl)cc23)c1F + Oc1cc(-c2nc(-c3ccccc3)[nH]c2-c2ccncc2)ccc1Cl [L779450] (first compound 0.08 µM, partner dose 0.2 µM) | 93.3%
NC1(c2ccc(-c3nc4ccn5c(=O)[nH]nc5c4cc3-c3ccccc3)cc2)CCC1 + O=C(O)C(=O)Nc1sc2c(c1C(=O)O)CCNC2 [TCS401] (first compound 0.4 µM, partner dose 1.66667 µM) | 98.1%
CN(c1ncccc1CNc1nc(Nc2ccc3c(c2)CC(=O)N3)ncc1C(F)(F)F)S(C)(=O)=O + Cn1cc(/C=C2\C(=O)Nc3cccnc32)c2ccccc21 [GW441756] (first compound 0.08 µM, partner dose 0.4 µM) | 91.9%
CS(=O)(=O)c1ccc(C(=O)Nc2ccc(Cl)c(-c3ccccn3)c2)c(Cl)c1 [vismodegib] + COc1cc2ncnc(Nc3ccc(Oc4ccccc4)cc3)c2cc1OC [SrcI1] (first compound 1 µM, partner dose 2 µM) | 105%
NC1(c2ccc(-c3nc4ccn5c(=O)[nH]nc5c4cc3-c3ccccc3)cc2)CCC1 + COc1ccc(-c2ccc3c(N4CCOCC4)nc(N4C[C@@H](C)O[C@@H](C)C4)nc3n2)cc1CO [KU0063794] (first compound 0.4 µM, partner dose 0.02 µM) | 95.6%
CN(c1ncccc1CNc1nc(Nc2ccc3c(c2)CC(=O)N3)ncc1C(F)(F)F)S(C)(=O)=O + O=C1NC(=O)/C(=C/c2ccc(-c3ccc(F)cc3O)o2)S1 [AS252424] (first compound 0.08 µM, partner dose 1 µM) | 97.4%
CS(=O)(=O)c1ccc(C(=O)Nc2ccc(Cl)c(-c3ccccn3)c2)c(Cl)c1 [vismodegib] + COc1ccc(COc2ccc(Cc3cnc(N)nc3N)cc2OC)cc1 [GW2580] (first compound 1 µM, partner dose 1 µM) | 86.5%
CS(=O)(=O)c1ccc(C(=O)Nc2ccc(Cl)c(-c3ccccn3)c2)c(Cl)c1 [vismodegib] + COc1ccc2c(c1)CCC1C2CCC2(C)C(NCCCCCCN3C(=O)C=CC3=O)CCC12 [U73122] (first compound 1 µM, partner dose 0.4 µM) | 90.5%
NC1(c2ccc(-c3nc4ccn5c(=O)[nH]nc5c4cc3-c3ccccc3)cc2)CCC1 + Cn1cc(/C=C2\C(=O)Nc3cccnc32)c2ccccc21 [GW441756] (first compound 0.4 µM, partner dose 0.4 µM) | 83.3%
C=C(c1ccc(C(=O)O)cc1)c1cc2c(cc1C)C(C)(C)CCC2(C)C [Bexarotene] + O=C(Nc1ccccc1)c1cc([N+](=O)[O-])ccc1Cl [GW9662] (first compound 2 µM, partner dose 2 µM) | 100%
NC1(c2ccc(-c3nc4ccn5c(=O)[nH]nc5c4cc3-c3ccccc3)cc2)CCC1 + COC(=O)c1sccc1S(=O)(=O)Nc1ccc(Nc2ccccc2)cc1OC [GSK0660] (first compound 0.4 µM, partner dose 1 µM) | 96.6%
CCCS(=O)(=O)Nc1ccc(F)c(C(=O)c2c[nH]c3ncc(Cl)cc23)c1F + O=C(O)C(=O)Nc1sc2c(c1C(=O)O)CCNC2 [TCS401] (first compound 0.08 µM, partner dose 1.66667 µM) | 101%
CS(=O)(=O)c1ccc(C(=O)Nc2ccc(Cl)c(-c3ccccn3)c2)c(Cl)c1 [vismodegib] + O=C(O)C(=O)Nc1sc2c(c1C(=O)O)CCNC2 [TCS401] (first compound 1 µM, partner dose 1.66667 µM) | 109%
C=C(c1ccc(C(=O)O)cc1)c1cc2c(cc1C)C(C)(C)CCC2(C)C [Bexarotene] + N#Cc1c(O)c2c(-c3ccc(-c4ccccc4O)cc3)csc2[nH]c1=O [A769662] (first compound 2 µM, partner dose 2 µM) | 104%
C=C(c1ccc(C(=O)O)cc1)c1cc2c(cc1C)C(C)(C)CCC2(C)C [Bexarotene] + COc1ccc(-c2ccc3c(N4CCOCC4)nc(N4C[C@@H](C)O[C@@H](C)C4)nc3n2)cc1CO [KU0063794] (first compound 2 µM, partner dose 0.02 µM) | 99.1%
CCCS(=O)(=O)Nc1ccc(F)c(C(=O)c2c[nH]c3ncc(Cl)cc23)c1F + COc1ccc(COc2ccc(Cc3cnc(N)nc3N)cc2OC)cc1 [GW2580] (first compound 0.08 µM, partner dose 1 µM) | 101%
